# Source: PubChem BioAssay AID504706 (National Center for Advancing Translational Sciences (NCATS), 2011)
# The whole screen tested about 320,000 compounds, of which about 200 (0.062%) were called active. This list was built around the results that the source calls inconclusive (neither active nor inactive); the mix of calls is not that of the screen. Calls come from the whole dose curve; as a rule, active = well fitted activation curve with a large enough effect; inconclusive = small, poorly fitted or top-dose-only effect; inactive = no such curve, though single readings can be large or run the other way. No potency is given beside an inconclusive call; the fits are too rough.
# Assay: qHTS assay for re-activators of p53 using a Luc reporter; note: nearly all actives have a fitted effect of over 45% in size; for activity change, positive = activation: % of control where 0% means no effect
# Conditions: H1299 p53-A138V BP100-luciferase reporter, luminescence, 24 h; series mostly up to 92.2 µM; activity change, positive = activation: at the top concentration
# In short: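 p53-null H1299 cells stably carrying temperature-sensitive p53-A138V and a BP100-luciferase reporter were pinned with compounds (4-point, 1:5 series) and held 24 hrs at 37 deg C. Luminescence was read 10 min after detection reagent.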
# Potency is the fitted concentration of half-maximal effect; tags give direction and shape of the fitted curve.
Structure (SMILES),Potency,"activity change, positive = activation"
CCCCn1c(=O)c(C(=O)Nc2ccccc2Cl)c(O)c2ccccc21,"inconclusive [activator, single point]",–
CCOc1ccc(-c2cc(C)[n+](CCN3CCOCC3)c(-c3ccc(OCC)cc3)c2)cc1,–,inactive: -4.45%
CC(C)C12CN3CC(C(C)C)(CN(C1)C3c1cccnc1)C2=O (stereo not given),–,inactive: -7.25%
CN1C(=O)C(=Cc2ccc(N3CCCCCC3)o2)C(=O)N(C)C1=S,–,inactive: 9.06%
CCOC(=O)c1ccc(N2C(=O)CC(N3CC=C(c4ccc(F)cc4)CC3)C2=O)cc1 (stereo not given),"inconclusive [activator, single point]",–
COc1ccc(-n2nc(C(=O)NCC(=O)N3CCC4(CC3)OCCO4)c3ccccc3c2=O)cc1OC,"inconclusive [activator, partial curve, poor fit]",–
COc1ccc(N2C(=O)NC(=O)/C(=C\c3cn(C)c4ccccc34)C2=O)cc1,–,inactive: -2.21%
Cc1ccc(Cn2nc(C(=O)Nc3ccc(Br)cc3)cc2C)cc1,"inconclusive [activator, full curve, poor fit]",–
CC(C)c1ccc(N2C(=O)NC(=O)/C(=C\C=C\c3ccco3)C2=O)cc1,–,inactive: 0.309%
CN1CCN(c2nc3ccccn3c(=O)c2C=C2C(=O)N(C)C(=O)N(C)C2=O)CC1,"inconclusive [activator, single point]",–
CC(=Nc1ccc(F)cc1)c1c(O)n(C)c(=O)[nH]c1=O,"inconclusive [activator, partial curve, poor fit]",–
O=[N+]([O-])c1ccc(NCc2ccccc2)c2nonc12,–,inactive: -1.95%
COc1ccc(N/N=C/c2c(O)n(-c3cccc(C)c3)c(=O)[nH]c2=O)cc1,–,inactive: -0.708%
CCCCOCCCn1c(N)c(C(=O)OCCOC)c2nc3ccccc3nc21,–,inactive: 18.9%
CN(C)P(=O)(C(Cl)=C(N1CCCCC1)N1CCCCC1)N(C)C,active: 31.6 µM,–
Cc1ccc(NC(=O)CN2C(=O)CN=C(c3ccccc3)c3cc(Cl)ccc32)cc1,–,inactive: -4.43%
CN1C2CCC1/C(=C/c1ccccn1)C(=O)/C2=C\c1ccccn1,–,inactive: -25.1%
O=c1[nH]c(=O)n(-c2cccc(Cl)c2)c(O)c1C=NCCCN1CCOCC1,–,inactive: -2.22%
Cc1cc(NC(=O)CCl)no1,–,inactive: -13.3%
Cc1ccc(C(=O)COC(=O)Cc2ccccc2)cc1,"inconclusive [activator, single point]",–
Cc1cc(C)n(-c2ccc(NN=C(C#N)C#N)cc2)n1,–,inactive: 14%
COC(=O)C(O)(c1ccc(NC(=S)NC(=O)c2ccc(Cl)cc2Cl)c(C)c1)C(F)(F)F (stereo not given),"inconclusive [activator, single point]",–
O=C1C(Cl)=CC(=Nc2ccc(O)cc2)C=C1Cl,"inconclusive [activator, single point]",–
Cc1ccc(N2C(=O)/C(=C/N3CCN(C(=O)c4ccco4)CC3)C(=O)NC2=S)cc1C,–,inactive: -0.103%
Cn1c(O)c(C(=N)COc2cccc(Cl)c2)c(=O)n(C)c1=O,"inconclusive [activator, partial curve, poor fit]",–

Structure (SMILES),Potency,"activity change, positive = activation"
Cc1cc(OC(=O)c2ccco2)c2c3c(c(=O)oc2c1)CCCC3,–,inactive: -2.3%
O=C(Nc1ccc(C(F)(F)F)cc1)OC1CN2CCC1CC2 (stereo not given),–,inactive: -2.48%
Cn1nc(OC(=O)Nc2ccccc2)cc1C(F)(F)F,"inconclusive [activator, single point]",–
COc1ccc(NC(=O)c2ccc(COCC(F)(F)C(F)F)cc2)cc1,"inconclusive [activator, partial curve, poor fit]",–
O=c1c2ccccc2nc(/C=C/c2ccc(F)cc2)n1-c1ccccc1O,"inconclusive [activator, single point]",–
N=C1c2ccccc2CN1CC(=O)c1ccccc1,"inconclusive [activator, partial curve, poor fit]",–
Cc1ccc(C(C)(C)NC(=O)C2CCC(=O)N(C3CCCCCC3)C2)cc1 (stereo not given),"inconclusive [activator, full curve]",–
Nc1ccccc1C(=O)OCC(=O)N1CCc2ccccc21,"inconclusive [activator, full curve]",–
Nc1c(C(=O)NCCc2ccccc2)c2nc3ccccc3nc2n1CCN1CCOCC1,–,inactive: -13.6%
CCOC(=O)c1cc(CC)sc1/N=C/C1C(=O)NC(=S)NC1=O,–,inactive: 0.382%
Cc1ccc(NC(=O)Nc2cccc3ccccc23)cc1,"inconclusive [activator, single point]",–
Nc1c(C(=O)OC2CCCCC2)c2nc3ccccc3nc2n1CC1CCCO1 (stereo not given),"inconclusive [activator, single point]",–
Cc1ccc2nc(N3CCN(C)CC3)[nH]c2c1,"inconclusive [activator, partial curve, poor fit]",–
CCCOC(=O)COc1cc(C)cc2oc(=O)c3c(c12)CCC3,–,inactive: -2.08%
COc1ccc(NC(=O)O/N=C/c2ccccc2)cc1,"inconclusive [activator, full curve, poor fit]",–
CCOC(=O)c1cn2nc(OP(=S)(OCC)OCC)cc2nc1C,–,inactive: 3.32%
COc1cc(C[C@@H](C)N)c(OC)cc1I,–,inactive: -3.86%
CCN(CC)C(=O)Oc1ccc2ccccc2c1Cl,"inconclusive [activator, single point]",–
COc1ccc(-n2c(O)c(C=NCc3ccc4c(c3)OCO4)c(=O)[nH]c2=O)cc1,–,inactive: -1.37%
O=C1NC(c2cccnc2)Nc2sc3c(c21)CCCC3 (stereo not given),"inconclusive [activator, partial curve, poor fit]",–
O=C(N/N=C/c1c(O)n(CCC2=CCCCC2)c(=O)[nH]c1=O)c1ccccc1,"inconclusive [activator, single point]",–
COC(=O)C1=C(c2cccc(OCc3ccccc3)c2)C[C@@H]2CC[C@H]1N2C(=O)NCCCc1ccccc1,"inconclusive [activator, single point]",–
O=P(O)(O)c1ccccc1OCCOCCOCCOCCOc1ccccc1P(=O)(O)O,"inconclusive [activator, partial curve, poor fit]",–
C1CCC2CCCCC2C1 (stereo not given),–,inactive: 2.92%
Cn1c(O)c(C=NCCN2CCN(C(=O)Nc3ccccc3)CC2)c(=O)n(C)c1=O,–,inactive: 7.82%

Structure (SMILES),Potency,"activity change, positive = activation"
O=C(NC(C(Cl)Cl)N1CCOCC1)c1ccccc1 (stereo not given),"inconclusive [activator, single point]",–
Cc1ccc(-c2nn(Cc3ccccc3)cc2C=O)cc1,"inconclusive [activator, partial curve, poor fit]",–
O=C1NC(=O)C(=Cc2csc3ccccc23)C(=O)N1,–,inactive: 1.97%
COc1ccc(CN2C(=O)CC(=O)NC2=S)cc1,–,inactive: -1.82%
Fc1ccc(C2NCCc3[nH]cnc32)cc1 (stereo not given),–,inactive: -9.57%
CC(=O)O[C@H]1C(=O)[C@@]2(C)C([C@H](OC(=O)c3ccccc3)[C@]3(O)C[C@H](OC(=O)[C@H](O)[C@@H](NC(=O)Cc4ccccc4)c4ccccc4)C(C)=C1C3(C)C)[C@]1(OC(C)=O)CO[C@@H]1C[C@@H]2O (stereo not given in full),–,inactive: 6.33%
CCCCN1C(=N)C(CC)(CC)C(=O)NC1=O,–,inactive: -0.217%
O=C1/C(=C\c2ccc([N+](=O)[O-])cc2)N2CCC1CC2,"inconclusive [activator, single point]",–
O=c1[nH]c2ccccc2c(=O)n1-c1cccc(Cl)c1,–,inactive: -0.323%
O=C(N/N=C/c1c(O)n(C2CC2)c(=S)[nH]c1=O)c1ccccc1O,active: 6.31 µM,–
C[C@H]1[C@H](OC(=O)CCC(=O)NCc2ccc(C(=O)O)cc2)O[C@@H]2O[C@@]3(C)CC[C@H]4[C@H](C)CC[C@@H]1C24OO3,"inconclusive [activator, full curve, poor fit]",–
CCOc1ccc2nc(N=Nc3c(O)[nH]c(=S)[nH]c3=O)sc2c1,–,inactive: 11.2%
O=C1C2CCCN2C(c2ccc(Cl)cc2)N1c1ccccn1 (stereo not given),"inconclusive [activator, single point]",–
Cc1cccc(-n2c(/C=C/c3ccc([N+](=O)[O-])o3)nc3ccccc3c2=O)c1,"inconclusive [activator, partial curve, poor fit]",–
COc1cccc(N=Nc2c(O)[nH]c(=S)[nH]c2=O)c1,–,inactive: 19.7%
[O-]/[N+](=C/c1cccnc1)c1ccc(Br)cc1,"inconclusive [activator, partial curve, poor fit]",–
CN(C)C(Cc1ccc(Cl)cc1)C(=O)c1ccccc1 (stereo not given),"inconclusive [activator, full curve, poor fit]",–
Cc1cccc(CN2CCCC(C(=O)c3cccc(OC(C)C)c3)C2)n1 (stereo not given),–,inactive: -3.89%
Cn1c(NN=O)nc2ccccc21,"inconclusive [activator, single point]",–
N#Cc1c(/N=C/c2ccc(O)cc2O)sc2c1C1CCN2CC1,–,inactive: 23.4%
CCCCn1c(NC(=O)c2ccc(Br)o2)c(C(=O)OCC)c2nc3ccccc3nc21,–,inactive: 17.2%
O=C(CN1CCCCC1)c1ccc(OC(F)F)cc1,"inconclusive [activator, full curve, poor fit]",–
C=CCN1C(=O)/C(=C/c2ccc(N3CCOCC3)o2)C(=O)NC1=S,"inconclusive [activator, partial curve, poor fit]",–
O=C(C1CC(=O)N(C2CCCCC2)C1)N1CCC2(CC1)OCCO2 (stereo not given),"inconclusive [activator, partial curve, poor fit]",–
O=C(C1CC(c2ccc(Cl)c(Cl)c2)=NO1)N1CCC2(CC1)OCCO2 (stereo not given),–,inactive: -4.83%
